The values that follow come from the supplement of paper PMC8728848.

The other results are listed elsewhere or left out.

Common to all, as to assay: glycan array binding signal (z-score within array); higher = stronger binding
Holding throughout (conditions): glycan notation: IUPAC condensed, linker removed

Test [1] has as its target Neu5Ac(a2-3)[Neu5Ac(a2-6)]GalNAc. The method, boiled down:
(§1)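 Columns mapping to the same glycan were averaged after glycan names were converted to IUPAC-condensed notation. The data come from 3228 arrays in the Consortium for Functional Glycomics database, limited to those with an available protein sequence. Binding is reported as a within-array Z-score averaged across arrays of one protein sequence and across linkers.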

Another test concerns the target Neu5Ac(a2-6)Gal. The method, boiled down: as §1
In another test the target is Neu5Ac(a2-6)Gal(b1-4)Glc. The procedure, abridged: as §1
Test [2] addresses Neu5Ac(a2-6)Gal(b1-4)GlcNAc. The method, boiled down:
as §1

For test [3], the target named is Neu5Ac(a2-6)Gal(b1-4)GlcNAc(b1-3)Gal(b1-4)GlcNAc. The procedure, abridged:
as §1

Test [4] has as its target Neu5Ac(a2-6)Gal(b1-4)GlcNAc(b1-3)Gal(b1-4)[Fuc(a1-3)]GlcNAc(b1-3)Gal(b1-4)[Fuc(a1-3)]GlcNAc. The procedure, abridged:
as §1

Test [5] concerns the target Neu5Ac(a2-6)Gal(b1-4)GlcNAc6S. The method, boiled down: as §1
Another test has as its target Neu5Ac(a2-6)GalNAc. The procedure, abridged:
as §1

Another test has as its target Neu5Ac(a2-8)Neu5Ac. The procedure, abridged:
as §1

For test [6], the target named is Neu5Ac(a2-8)Neu5Ac(a2-3)Gal(b1-4)Glc. The procedure, abridged: as §1
Test [7] concerns the target Neu5Ac(a2-8)Neu5Ac(a2-3)[GalNAc(b1-4)]Gal(b1-4)Glc. The procedure, abridged:
as §1

Test [8] deals with Neu5Ac(a2-8)Neu5Ac(a2-8)Neu5Ac. The method, boiled down: as §1
Test [9] concerns the target Neu5Ac(a2-8)Neu5Ac(a2-8)Neu5Ac(a2-3)Gal(b1-4)Glc. The procedure, abridged:
as §1

The target in test [10] is Neu5Ac(a2-8)Neu5Ac(a2-8)Neu5Ac(a2-3)[GalNAc(b1-4)]Gal(b1-4)Glc. The procedure, abridged: as §1
Another test deals with Neu5Ac(b1-6)GalNAc. The procedure, abridged: as §1
For test [11], the target named is Neu5Ac(b2-6)Gal(b1-4)GlcNAc. The method, boiled down: as §1
Test [12] concerns the target Neu5Ac9Ac(a2-6)Gal(b1-4)GlcNAc. The method, boiled down:
as §1

The target in test [13] is Neu5Gc(a2-3)Gal(b1-3)GlcNAc. The method, boiled down:
as §1

Test [14] addresses Neu5Gc(a2-3)Gal(b1-3)[Fuc(a1-4)]GlcNAc. The procedure, abridged:
as §1

The target of another test is Neu5Gc(a2-3)Gal(b1-4)Glc. The procedure, abridged:
as §1

The target in test [15] is Neu5Gc(a2-3)Gal(b1-4)GlcNAc. The procedure, abridged: as §1
Test [16] concerns the target Neu5Gc(a2-3)Gal(b1-4)[Fuc(a1-3)]GlcNAc. The procedure, abridged:
as §1

The target in test [17] is Neu5Gc(a2-6)Gal(b1-4)GlcNAc. The procedure, abridged:
as §1

In a further test the target is Neu5Gc(a2-6)GalNAc. The procedure, abridged: as §1

B1: IRP60A (Homo sapiens), Q9UGN4 (protein)
chain: MWLPWALLLLWVPGCFALSKCRTVAGPVGGSLSVQCPYEKEHRTLNKYWCRPPQIFLCDKIVETKGSAGKRNGRVSIRDSPANLSFTVTLENLTEEDAGTYWCGVDTPWLRDFHDPVVEVEVSVFPASTSMTPASITAAKTSTITTAFPPVSSTTLFAVGATHSASIQEETEEVVNSQLPLLLSLLALLLLLLVGASLLAWRMFQKWIKAGDHSELSQNPKQAATQSELHYANLELLMWPLQEKPAPPREVEVEYSTVASPREELHYASVVFDSNTNRIAAQRPREEEPDSDYSVIRKT
For the molecule B1, the “glycan array binding signal (z-score)” value in test [1] is -0.437; with Neu5Ac(a2-6)Gal it was -0.171; with Neu5Ac(a2-6)Gal(b1-4)Glc, 1.66; in test [2], -0.325; in test [3], -0.38; in [4], -0.335. The “glycan array binding signal (z-score)” value in [5] was -0.334; with Neu5Ac(a2-6)GalNAc, -0.309; with Neu5Ac(a2-8)Neu5Ac, 5.86; in test [6] it was -0.164; in [7], -0.404; in [8], -0.361. Moreover, the “glycan array binding signal (z-score)” value in test [9] is -0.304; in test [10], -0.444; with Neu5Ac(b1-6)GalNAc, -0.175; in test [11], -0.389; in test [12], -0.342; in [13] it was -0.502. The “glycan array binding signal (z-score)” value in test [14] was -0.373; with Neu5Gc(a2-3)Gal(b1-4)Glc, -0.333; in test [15], -0.407; in test [16], -0.27; in [17] it was -0.361; with Neu5Gc(a2-6)GalNAc, -0.365.
